For 5 molecules, binding results are on record in paper PMC10520260.

For assay [1], the target named is T1, Tim50(1–370) (yeast) (UniProt Q02776).
T1 sequence: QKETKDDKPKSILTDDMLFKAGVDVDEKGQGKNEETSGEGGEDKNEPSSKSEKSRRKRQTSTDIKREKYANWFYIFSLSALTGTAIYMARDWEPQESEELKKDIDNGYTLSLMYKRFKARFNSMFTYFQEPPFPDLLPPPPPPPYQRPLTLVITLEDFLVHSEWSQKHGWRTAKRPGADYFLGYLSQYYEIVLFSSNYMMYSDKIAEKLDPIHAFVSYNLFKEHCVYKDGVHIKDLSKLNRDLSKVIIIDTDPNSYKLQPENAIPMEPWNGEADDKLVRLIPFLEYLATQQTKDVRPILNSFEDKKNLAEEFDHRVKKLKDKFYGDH
The assay can be described thus: co-IP; digitonin-solubilised mitochondria of 50FL and 50split cells (1% digitonin, 20 mM TRIS/HCl, 80 mM KCl, 10% glycerol, pH 8.0, 4°C); affinity-purified antibodies against Tim50N, Tim50C or Tim23 prebound to Protein A Sepharose; immunoblot.

The target in assay [2] is T2, b2(1–167)-Tim50(366–476), IMS-targeted PBD of Tim50 (yeast) (UniProt P00175+Q02776).
T2 sequence: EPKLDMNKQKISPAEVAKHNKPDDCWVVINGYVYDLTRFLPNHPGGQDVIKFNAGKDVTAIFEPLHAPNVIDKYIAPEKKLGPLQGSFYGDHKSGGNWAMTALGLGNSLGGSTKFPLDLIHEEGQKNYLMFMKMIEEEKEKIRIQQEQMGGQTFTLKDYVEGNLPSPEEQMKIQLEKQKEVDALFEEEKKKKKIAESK
Described as above.

Assay [3] has as its target T3, Tim50(1–476), full-length wild-type Tim50 (yeast) (UniProt Q02776).
T3 sequence: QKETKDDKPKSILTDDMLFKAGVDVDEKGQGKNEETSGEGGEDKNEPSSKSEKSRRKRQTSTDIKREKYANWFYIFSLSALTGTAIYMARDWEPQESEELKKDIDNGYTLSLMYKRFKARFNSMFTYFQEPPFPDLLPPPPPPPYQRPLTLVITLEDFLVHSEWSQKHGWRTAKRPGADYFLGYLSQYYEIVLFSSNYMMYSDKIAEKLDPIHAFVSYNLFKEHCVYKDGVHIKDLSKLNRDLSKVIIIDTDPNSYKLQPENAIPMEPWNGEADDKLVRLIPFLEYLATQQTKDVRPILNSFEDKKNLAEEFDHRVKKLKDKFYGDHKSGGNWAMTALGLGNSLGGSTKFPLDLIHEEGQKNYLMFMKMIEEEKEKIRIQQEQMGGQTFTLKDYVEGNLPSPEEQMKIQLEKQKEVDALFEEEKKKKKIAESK
The description is as above.

For assay [4], the target named is T4, TOM complex (yeast (endogenous in YPH499 mitochondria)) (UniProt P23644+P49334+P35180+P80967+P33448+P53507).
T4 sequence 1: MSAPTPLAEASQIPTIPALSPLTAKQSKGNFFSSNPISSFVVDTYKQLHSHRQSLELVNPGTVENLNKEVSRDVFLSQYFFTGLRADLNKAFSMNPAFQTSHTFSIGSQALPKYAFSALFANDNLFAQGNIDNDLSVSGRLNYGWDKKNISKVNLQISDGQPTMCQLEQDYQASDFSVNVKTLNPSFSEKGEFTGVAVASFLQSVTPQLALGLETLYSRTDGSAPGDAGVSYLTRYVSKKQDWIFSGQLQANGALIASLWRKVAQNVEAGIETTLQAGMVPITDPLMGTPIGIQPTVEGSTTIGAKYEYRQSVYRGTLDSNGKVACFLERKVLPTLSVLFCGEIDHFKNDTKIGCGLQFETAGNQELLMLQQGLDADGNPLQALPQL
T4 sequence 2: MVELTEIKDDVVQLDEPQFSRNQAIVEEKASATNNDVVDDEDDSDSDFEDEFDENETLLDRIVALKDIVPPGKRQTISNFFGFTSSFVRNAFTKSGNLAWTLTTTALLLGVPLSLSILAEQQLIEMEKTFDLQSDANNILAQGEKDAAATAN
T4 sequence 3: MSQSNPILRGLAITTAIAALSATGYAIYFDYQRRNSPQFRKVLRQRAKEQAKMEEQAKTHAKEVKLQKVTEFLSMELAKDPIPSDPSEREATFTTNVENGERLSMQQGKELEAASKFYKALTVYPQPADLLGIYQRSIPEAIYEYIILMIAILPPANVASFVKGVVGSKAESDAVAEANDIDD
T4 sequence 4: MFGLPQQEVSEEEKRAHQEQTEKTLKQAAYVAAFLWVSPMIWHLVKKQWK
T4 sequence 5: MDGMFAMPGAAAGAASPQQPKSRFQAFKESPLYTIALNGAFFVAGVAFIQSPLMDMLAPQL
T4 sequence 6: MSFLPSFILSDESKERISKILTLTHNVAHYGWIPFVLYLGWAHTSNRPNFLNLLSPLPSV
Put plainly: native gel or EMSA; ^35S-labelled Oxa1 precursor imported at 25°C into 50FL and 50split mitochondria without membrane potential; 1% digitonin; BN-PAGE (4–16%) and autoradiography.

Assay [5] has as its target T1, Tim50(1–370) (yeast). The assay can be described thus: cross-linking; ^35S-labelled precursor imported into isolated 50FL and 50split mitochondria without membrane potential; 50 μM DFDNB, 30 min on ice; solubilised in 1% SDS, diluted in Triton X-100, immunoprecipitated with Tim50N or Tim50C antibodies; autoradiography.
The target of assay [6] is T2, b2(1–167)-Tim50(366–476), IMS-targeted PBD of Tim50 (yeast). The assay is described as above.
Assay [7] addresses T3, Tim50(1–476), full-length wild-type Tim50 (yeast). Described as above.
The target in assay [8] is T5, Tim23 (yeast (endogenous in YPH499 mitochondria)) (UniProt P32897).
T5 sequence: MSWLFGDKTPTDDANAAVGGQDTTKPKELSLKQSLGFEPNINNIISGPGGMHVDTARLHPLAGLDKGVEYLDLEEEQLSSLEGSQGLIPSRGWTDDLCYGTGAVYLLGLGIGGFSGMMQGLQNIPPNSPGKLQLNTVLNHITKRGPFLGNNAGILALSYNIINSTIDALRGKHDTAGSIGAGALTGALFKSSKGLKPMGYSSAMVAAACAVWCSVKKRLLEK
Put plainly: co-IP; digitonin-solubilised mitochondria of 50FL and 50split cells (1% digitonin, 20 mM TRIS/HCl, 80 mM KCl, 10% glycerol, pH 8.0, 4°C); affinity-purified antibodies against Tim50N, Tim50C or Tim23 prebound to Protein A Sepharose; immunoblot.

Results are given in words; binding and its absence hold for the method and conditions named. For part of these data: Binding seen in cells or lysates may run through a third protein. Some entries that bind do so weakly or less than the wild type.

B1: Tim23 (protein, UniProt P32897 1-222)
chain: T5 sequence
B1: the binding entry in the assay with Tim50(1–370) (yeast) [1] is listed as “binds”; in assay [2], “no binding”; in assay [3], “binds”.

B2: Oxa1 precursor (protein, UniProt P39952 1-402)
chain: MFKLTSRLVTSRFAASSRLATARTIVLPRPHPSWISFQAKRFNSTGPNANDVSEIQTQLPSIDELTSSAPSLSASTSDLIANTTQTVGELSSHIGYLNSIGLAQTWYWPSDIIQHVLEAVHVYSGLPWWGTIAATTILIRCLMFPLYVKSSDTVARNSHIKPELDALNNKLMSTTDLQQGQLVAMQRKKLLSSHGIKNRWLAAPMLQIPIALGFFNALRHMANYPVDGFANQGVAWFTDLTQADPYLGLQVITAAVFISFTRLGGETGAQQFSSPMKRLFTILPIISIPATMNLSSAVVLYFAFNGAFSVLQTMILRNKWVRSKLKITEVAKPRTPIAGASPTENMGIFQSLKHNIQKARDQAERRQLMQDNEKKLQESFKEKRQNSKIKIVHKSNFINNKK
modifications: ^35S-methionine label
Regarding B2, the binding entry is “binds” in assay [4], “binds” with Tim50(1–370) (yeast) [5], “no binding” in assay [6] and “binds” in assay [7].

B3: b2(1–167)-Tim50(366–476), IMS-targeted PBD of Tim50 (domain or fragment, UniProt P00175 81-167; Q02776 366-476)
chain: T2 sequence
For the molecule B3, the binding entry (with Tim50(1–370) (yeast) [1]; in assay [8]) was “no binding” in each case.

B4: Tim17 (protein, UniProt P39515 1-158)
chain: MSADHSRDPCPIVILNDFGGAFAMGAIGGVVWHGIKGFRNSPLGERGSGAMSAIKARAPVLGGNFGVWGGLFSTFDCAVKAVRKREDPWNAIIAGFFTGGALAVRGGWRHTRNSSITCACLLGVIEGVGLMFQRYAAWQAKPMAPPLPEAPSSQPLQA
In the case of B4, the binding entry in the assay with Tim50(1–370) (yeast) [1] is recorded as “binds”; in assay [2], “no binding”; in assay [3] it was “binds”; in assay [8], “binds”.

B5: Tim50(1–370) (domain or fragment, UniProt Q02776 44-370)
chain: T1 sequence
Regarding B5, the binding entry in assay [2] was “no binding”; in assay [8], “binds”.
